# Results from PubChem BioAssay AID1347073 (National Center for Advancing Translational Sciences (NCATS), 2019).
# Hit rate of the full screen: of about 45,000 compounds, about 200 (0.44%) were called active. Inconclusive results (about 7%) are left out. The call rests on the fitted dose curve; in most records, active means well fitted activation curve with a large enough effect; inconclusive means small, poorly fitted or top-dose-only effect; inactive means no such curve, though single readings can be large or run the other way. The list shows a part of the results.
# Assay: qHTS of TDP-43 Inhibitors: NCGC Sytravon Library Screen; further: 0% is about no effect; nearly all actives have a fitted effect of over 55% in size
# Conditions: yeast TDP-43 toxicity rescue, BacTiter-Glo growth, 24 h; series mostly up to 46.1 µM; growth rescue (activation): at the top concentration
# Outline: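 TDP-43-expressing yeast, pregrown in raffinose, seeded at OD600 0.02 in galactose medium with compound for 24 hr at 30 deg C. Growth read by BacTiter-Glo luminescence, so rescue of toxicity appears as activation.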
row,SMILES,growth rescue (activation)
1,Cc1ccc(S(=O)(=O)N/N=C/c2cccc(OC3CSC3)c2)cc1,inactive: 23.9%
2,COc1ccc(-c2[nH]ncc2C(=O)NCc2cccc(OC)c2)cc1,inactive: 12.1%
3,Cc1ccsc1CN(C(=O)COc1ccc(Cl)cc1)C1CCS(=O)(=O)C1 (stereo unspecified),inactive: 1.99%
4,CCC(c1nnnn1C1CCCC1)N1CCN(c2cccc(OC)c2)CC1 (stereo unspecified),inactive: -21.2%
5,Cc1cccnc1C(NC(=O)C1CCN(CCCc2ccccc2)CC1)c1ccc(F)cc1 (stereo unspecified),inactive: 1.04%
6,CC(=O)C1=C(C)NC2=C(C(=O)c3ccccc32)C1c1ccccc1 (stereo unspecified),inactive: 9.36%
7,Cc1cccc(NC(=O)/C(=C/c2cccc([N+](=O)[O-])c2)NC(=O)c2cccs2)c1,inactive: -11.1%
8,Oc1ccc(NC(=S)N=Nc2c(O)[nH]c3ccc(Br)cc23)cc1,inactive: -5.91%
9,COC(=O)Cn1c(=O)c2c(n(Cc3ccccc3)c1=O)N/C(=C/c1ccc(OC)cc1)C2=O,inactive: 26.6%
10,Cc1ccc(/C=C(\C#N)C(=O)Nc2cccc(Cl)c2)o1,inactive: 0.111%
11,O=C(/C=C/c1c(F)cccc1Cl)Nc1nc2ccccc2[nH]1,inactive: 0.127%
12,NS(=O)(=O)c1ccc(NC(=O)COC(=O)C2CC(=O)N(Cc3ccccc3)C2)cc1 (stereo unspecified),inactive: 14.6%
13,CCCC(C(=O)O)n1c(O)c(C=C2N=c3ccccc3=N2)sc1=S (stereo unspecified),inactive: -4.39%
14,CC(=O)NC(c1ccc2ccccc2c1)c1ccc2cccnc2c1O (stereo unspecified),inactive: 25.5%
15,CCOC(=O)c1c(CN(C)C)n(C)c2c(O)c(N=NC(N)=O)c3ccc(Br)cc3c12,inactive: -4.77%
16,Cc1coc2c1c(C)cc1oc(=O)c(CC(=O)NCC(=O)O)c(C)c12,inactive: -13.8%
17,O=C(c1ccc(C(F)(F)F)cc1)C1CCCN(C(=O)CCN2CCCO2)C1 (stereo unspecified),inactive: -0.0735%
18,CCCn1c(C)cc(-c2csc(N)n2)c1C,inactive: 12.3%
19,O=S(=O)(c1cccc(C(F)(F)F)c1)N1CCN(c2cnccn2)CC1,inactive: 11.2%
20,O=C(O)C1CCN(C(=O)c2ccco2)CC1,inactive: 3.91%
21,CC(NC(=O)C1CCN(CCOc2ccc(Cl)cc2)CC1)c1cccc2ccccc12 (stereo unspecified),inactive: -7.53%
22,Oc1c(Br)cc(Br)cc1CNc1ccccn1,inactive: -0.11%

row,SMILES,growth rescue (activation)
1,O=[N+]([O-])c1cnc(N2CCCCC2)c([N+](=O)[O-])c1,inactive: 10.1%
2,CCOC(=O)/C(=C\c1ccc(C)cc1)NC(=O)c1ccccc1,inactive: 0.91%
3,Cc1ccc(C(=O)N/N=C\c2c(C)nn(-c3ccccc3)c2Cl)cn1,inactive: 18.1%
4,O=C(Cn1cc(C(=O)COc2ccccc2)c2ccccc21)NCc1ccco1,inactive: 8.44%
5,Cc1ccc(C)c(S(=O)(=O)Nc2ccc3[nH]c(=O)[nH]c3c2)c1,inactive: 12.6%
6,Cc1ccccc1C(=O)NC(=S)NC1CCSC1=O (stereo unspecified),inactive: 18.5%
7,COc1ccc(C2(C)NC(=O)N(CC(=O)NC3CC3)C2=O)cc1 (stereo unspecified),inactive: 8.54%
8,OCC1(Cc2ccccc2C(F)(F)F)CCN(Cc2ccncc2)CC1,inactive: 21.2%
9,OCCNc1ccc(Cl)cc1,inactive: -5.21%
10,O=C(OCc1c(Cl)cccc1Cl)c1ccccn1,inactive: 19.5%
11,O=C(Nc1ccc(NC(=O)c2ccc([N+](=O)[O-])cc2[N+](=O)[O-])cc1)c1ccco1,inactive: -3.46%
12,CC(=O)Nc1cccc(-c2cc(C)c3cc4c(cc3n2)OCO4)c1,inactive: 3.45%
13,OC(CNCc1cccc(Br)c1)c1ccccc1 (stereo unspecified),inactive: -1.2%
14,O=C(COc1ccc(S(=O)(=O)N2CCCC2)cc1)N1CCCCC1,inactive: 9.05%
15,O=C(NC1CC1)C1CCN(C(=O)c2ccccc2Cl)CC1,inactive: 1.49%
16,CCC(C)(C)NC(=O)C(c1ccc(F)cc1)N(Cc1cccc(OC)c1)C(=O)c1cnccn1 (stereo unspecified),inactive: -9.92%
17,CN(C)S(=O)(=O)c1cccc(NC(=O)CSc2nc3c(cc2C#N)C(=O)CC(C)(C)C3)c1,inactive: 6.31%
18,O=C(O)C(NS(=O)(=O)c1ccccc1)C(O)c1ccccc1 (stereo unspecified),inactive: 8.61%
19,O=C(Nc1ccccc1)C1CCN(C(=O)c2ccco2)CC1,inactive: 10.6%
20,CCSc1ncc(Cl)c(C(=O)Nc2c(C(=O)Nc3ccccc3)oc3ccccc23)n1,inactive: -6.68%
21,O=C(O)c1c(-c2ccccc2)oc2ccc(OCc3c(F)cccc3Cl)cc12,inactive: 4.92%
22,Cc1cc(C)cc(C(=O)Nc2ccc3[nH]c(=O)[nH]c3c2)c1,inactive: 4.77%

row,SMILES,growth rescue (activation)
1,O=C(CN1CCCC1)Nc1ccc([N+](=O)[O-])cc1Cl,inactive: 16.3%
2,Cc1ccc(C(=O)N2CCN(c3ccccc3F)CC2)cc1S(=O)(=O)N1CCOCC1,inactive: -15.2%
3,CN(CC1COc2ccccc2O1)C(=O)CSc1nncs1 (stereo unspecified),inactive: 15.4%
4,COc1cc(/C=N/Nc2nc(Nc3ccccc3)nc(N3CCCCC3)n2)ccc1OCC(=O)O,inactive: 7.18%
5,O=C(NCc1cccs1)C1CCCN1C(=O)Nc1ccccc1Cl (stereo unspecified),inactive: 8.64%
6,CCOc1ccc2[nH]c(=O)c(CN(Cc3ccc(F)cc3)C(=O)c3ccco3)cc2c1,inactive: 9.96%
7,N=C1C(c2nc3ccccc3[nH]2)=C(O)CN1NC(=O)c1c[nH]c2ccccc12,inactive: 7.69%
8,COc1ccc(N(Cc2cc3ccc(C)cc3[nH]c2=O)C(=O)C2CCCO2)cc1 (stereo unspecified),inactive: -9.23%
9,NC(=O)c1ccc(NC(=O)CSc2nnc(-c3ccccn3)n2N)cc1,inactive: 4.58%
10,O=C(CSc1n[nH]c(=O)n1Cc1ccccc1)Nc1ccc(F)c(F)c1F,inactive: 12.2%
11,Cc1noc(C)c1-c1ccc(C(=O)N2CCN(C)CC2)c2occc12,inactive: -9.62%
12,CC1CCCCN1C(=O)/C=C/c1ccccc1[N+](=O)[O-] (stereo unspecified),inactive: 9.99%
13,Cn1c(=O)c(C(=O)NNC(=O)c2ccccc2Br)c(O)c2ccccc21,inactive: -22.4%
14,COc1cc(C(O)c2nc(-c3cnn(C)c3)cs2)ccc1F (stereo unspecified),inactive: 18.9%
15,O=C(COc1ccc(Cl)cc1[N+](=O)[O-])N1CCCCCC1,inactive: 10.6%
16,CCOc1ccc(NC(=O)c2ccccc2OC)cc1,inactive: 27.1%
17,CCOC(=O)c1sc(NC(=O)C2CC(=O)N(c3ccc(OC)cc3)C2)nc1C (stereo unspecified),inactive: 15.9%
18,CC(=O)NC(C)c1nc2ccccc2n1CC(=O)NC(C)CCc1ccccc1 (stereo unspecified),inactive: 0.0427%
19,COc1ccccc1OCC(=O)Nc1ccccc1C(=O)NCc1cccnc1,inactive: 2.44%
20,Cc1ccc(S(=O)(=O)NCCSc2nncn2C)cc1,inactive: 9.95%
21,O=C(NCCSc1ccccn1)c1ccc(Cl)cc1,inactive: 3.25%
22,O=C(CSc1nc2ccccc2s1)N/N=C/c1cc([N+](=O)[O-])ccc1O,inactive: 8.87%

row,SMILES,growth rescue (activation)
1,O=C(c1cc(-c2ccccc2)nc2ccccc12)N1CCCC1,inactive: 9.29%
2,O=C(OCC(=O)N1CCCCC1)c1cc(S(=O)(=O)N2CCOCC2)c(Cl)cc1Cl,inactive: 9.71%
3,O=C(NC1=NCCS1)c1ccc(Cl)c(S(=O)(=O)N2CCCC2)c1,inactive: -3.23%
4,CC(C)(C)c1cc(-c2ccccc2)no1,inactive: 10%
5,CCOC(=O)C1=C(C)NC(C)=C(C(=O)OCC)C1C(=O)OCC(=O)N1CCC(C)CC1,inactive: -21.1%
6,Cc1cccc(C)c1OCC(=O)Nn1c(=O)[nH]c2ccccc2c1=O,inactive: 3.68%
7,O=C(CSc1ncnc2ccccc12)Nc1cccc(S(=O)(=O)N2CCCC2)c1,inactive: 9.3%
8,COc1ccc([N+](=O)[O-])cc1NC(=O)c1ccccc1N(C)S(C)(=O)=O,inactive: 7.48%
9,Cc1ccc(S(=O)(=O)N(CC(O)CN2C(=O)NC(C)(C)C2=O)c2ccccc2)cc1 (stereo unspecified),inactive: 4.05%
10,Cc1ccc(Cn2nnc3c(=O)[nH]c(C4CCCN(S(=O)(=O)c5ccc(F)cc5)C4)nc32)cc1 (stereo unspecified),inactive: 12.7%
11,COc1cc(CNc2ccc3[nH]c(=O)[nH]c3c2)ccc1OCc1ccccc1F,inactive: 14.2%
12,COc1ccc(NC(=O)c2cccc(C#N)c2)cc1NS(=O)(=O)c1ccc(F)cc1,inactive: 3.12%
13,O=C(O)c1ccc(N=c2oc3cc(O)ccc3cc2C(=O)NCc2ccccc2)cc1,inactive: -12.1%
14,COc1ccccc1Oc1c(C)oc2c(CN3CCN(CCO)CC3)c(O)ccc2c1=O,inactive: 5.48%
15,CCN=C1SC(CC(=O)Nc2ccccc2)C(=O)N1CC (stereo unspecified),inactive: 9.74%
16,Nc1ncc(-c2ccccc2)c(-c2ccc(OCc3ccccc3)cc2O)n1,inactive: 16.9%
17,CC(C)c1ccc(OCC(=O)Nc2ccc(OC(F)(F)F)cc2)cc1,inactive: 10.1%
18,CCCCCNC(=O)Cn1c(=O)c2c(ncn2CC(C)C)n(Cc2ccccc2)c1=O,inactive: 3.8%
19,COc1cc(Nc2c3ccccc3nc3ccccc23)cc(OC)c1OC,inactive: -6.93%
20,O=C(/C=C\c1ccco1)Nc1nc(-c2ccc3ccccc3c2)cs1,inactive: -2.6%
21,COc1ccc(C2(c3ccc(OC)cc3)NC(=O)N(CC(=O)Nc3cc(C)on3)C2=O)cc1,inactive: -3%
22,COc1cccc(CN(C)CC(O)COC(c2ccccc2)c2ccccc2C)c1 (stereo unspecified),inactive: -6.56%

row,SMILES,growth rescue (activation)
1,O=C(COc1ccc(Br)cc1Cl)NC(=O)Nc1ccc2c(c1)OCCO2,inactive: 15.2%
2,O=C(c1ccc(CSc2ccccc2)cc1)N1CCCCCC1,inactive: 17.5%
3,O=C(O)C(Cc1ccccc1)Nc1ccc([N+](=O)[O-])cc1[N+](=O)[O-] (stereo unspecified),inactive: 11.5%
4,COc1ccc(S(=O)(=O)NCc2cc(-c3ccccc3Cl)no2)cc1,inactive: -21.4%
5,Cc1ccc(C(=O)N2CCN(c3ccc(NC(=O)c4cc(C)cc(C)c4)cc3)CC2)cc1,inactive: 16.9%
6,O=S(=O)(NC(=NC1CCCCC1)c1ccccc1F)c1ccccc1,inactive: 14.6%
7,COc1cc(Cl)ccc1OC1(C)CCN(Cc2ccc(SC)cc2)C1 (stereo unspecified),inactive: 19.3%
8,O=C(O)c1nn2c(c1Br)NC(c1ccccc1)CC2C(F)(F)F (stereo unspecified),inactive: 5.45%
9,COC(=O)c1c(-c2ccccc2)csc1NC1=NS(=O)(=O)c2ccccc21,inactive: 9.67%
10,COc1ccc(CNC(=O)COC(=O)[C@@H]2CCCN2C(=O)c2cccs2)cc1,inactive: -1.02%
11,CCOC(=O)C1CCCN(C(=O)c2ccccc2NS(=O)(=O)c2ccc(F)cc2)C1 (stereo unspecified),inactive: -10.2%
12,O=C(C1CCCO1)N1CCN(S(=O)(=O)c2cccc3nsnc23)CC1 (stereo unspecified),inactive: 1.35%
13,O=C(c1ccc(N2CCCS2(=O)=O)cc1)N1CCN(c2ccccc2)CC1,inactive: 11%
14,Cc1ccnc(N2CCCC(C(=O)Nc3ccc(C)c(C)c3)C2)n1 (stereo unspecified),inactive: 7.78%
15,O=[N+]([O-])c1cccc(COc2ncnc3cc([N+](=O)[O-])ccc23)c1,inactive: 26.1%
16,COc1ccc(OC)c(NC(=O)C2(C)CCN2C(=O)C2(c3ccccc3)CCCC2)c1 (stereo unspecified),inactive: 22.7%
17,CCc1cc(CC)c(/C=N/NC(N)=O)c(CC)c1/C=N/NC(N)=O,inactive: 7.35%
18,CCCCNC(=O)Cn1nc([N+](=O)[O-])c([N+](=O)[O-])c1C,inactive: -2.15%
